Measured values reported in patent US20240101605A1 (Affibody, published 2024).

Assays:
Assay in all cases: SPR, Biacore T200, target immobilized on CM5 chip, 1-100 nM in triplicates
[1] = molecular target: T1, extracellular domain from murine CD69 (murine, UniProt P37217 64-199)
T1 construct: Bought protein; immobilized on a CM5 chip by EDC/NHS coupling; also called mCD69
T1 sequence: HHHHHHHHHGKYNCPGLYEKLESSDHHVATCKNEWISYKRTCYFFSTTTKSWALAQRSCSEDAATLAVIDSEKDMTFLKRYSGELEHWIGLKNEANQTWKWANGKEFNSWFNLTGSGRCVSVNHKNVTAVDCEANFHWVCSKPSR

[2] = molecular target: T2, extracellular domain from human CD69 (human, UniProt Q07108 64-199)
T2 construct: Bought protein; immobilized on a CM5 chip by EDC/NHS coupling; also called hCD69
T2 sequence: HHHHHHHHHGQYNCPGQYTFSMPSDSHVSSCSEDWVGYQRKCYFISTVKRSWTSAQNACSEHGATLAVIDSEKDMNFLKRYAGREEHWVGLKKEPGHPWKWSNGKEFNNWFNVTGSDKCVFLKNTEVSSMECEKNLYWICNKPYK

Human serum albumin = molecular target: T3, Human serum albumin (human, UniProt P02768 25-609)
T3 construct: immobilized on a CM5 chip; also called HSA

B1: H6-ZC69001-ABD (designed binder)
chain: MGSSHHHHHHYYLEVDNKFNKEFYNAWWEIRKLPNLNAWQKEAFKTSLKDDPSQSANLLAEAKKLNDAQAPKVDGGGGSGGGGSGGGGSLAEAKVLANRELDKYGVSDFYKRLINKAKTVEGVEALKLHILAALP
notes: also called ZC69001 in the format H6-Z-(G4S)3-ABD
[1]
  Kd: 34 nM
[2]
  Kd: 34 nM
Human serum albumin
  Kd: 0.17 nM

B2: H6-ZC69002-ABD (designed binder)
chain: MGSSHHHHHHYYLEVDNKFNKEFYNAWWEIRKLPNLNSYQKEAFKTSLKDDPSQSANLLAEAKKLNDAQAPKVDGGGGSGGGGSGGGGSLAEAKVLANRELDKYGVSDFYKRLINKAKTVEGVEALKLHILAALP
notes: also called ZC69002 in the format H6-Z-(G4S)3-ABD
[1]
  Kd: 46 nM
[2]
  Kd: 51 nM
Human serum albumin
  Kd: 0.09 nM

B3: H6-ZC69004-ABD (designed binder)
chain: MGSSHHHHHHYYLEVDNKFNKEFSMAMKEILALPNLNQYQKEAFKTSLKDDPSQSANLLAEAKKLNDAQAPKVDGGGGSGGGGSGGGGSLAEAKVLANRELDKYGVSDFYKRLINKAKTVEGVEALKLHILAALP
notes: also called ZC69004 in the format H6-Z-(G4S)3-ABD
[2]
  Kd: 29 nM
Human serum albumin
  Kd: 0.78 nM

B4: H6-ZC69003-ABD (designed binder)
chain: MGSSHHHHHHYYLEVDNKFNKEFQWAWQEILHLPNLNKYQKEAFKTSLKDDPSQSANLLAEAKKLNDAQAPKVDGGGGSGGGGSGGGGSLAEAKVLANRELDKYGVSDFYKRLINKAKTVEGVEALKLHILAALP
notes: also called ZC69003 in the format H6-Z-(G4S)3-ABD
[2]
  Kd: 49 nM
Human serum albumin
  Kd: 0.49 nM

B5: H6-ZC69005-ABD (designed binder)
chain: MGSSHHHHHHYYLEVDNKFNKEFQWAWQEILVLPNLNKYQKEAFKTSLKDDPSQSANLLAEAKKLNDAQAPKVDGGGGSGGGGSGGGGSLAEAKVLANRELDKYGVSDFYKRLINKAKTVEGVEALKLHILAALP
notes: also called ZC69005 in the format H6-Z-(G4S)3-ABD
[2]
  Kd: 30 nM
Human serum albumin
  Kd: 0.52 nM
